Screen size: about 390,000 compounds; about 930 (0.24%) were called active. Inconclusive results, whose numbers are uncertain, are shown with a selection of clear calls. Calls come from the whole dose curve; as a rule, active = well fitted activation curve with a large enough effect; inconclusive = small, poorly fitted or top-dose-only effect; inactive = no such curve, though single readings can be large or run the other way. Where the call is inconclusive, the potency comes from a doubtful curve fit.
Assay: qHTS for Suppressors of FUS Proteinopathy: Primary screen using FUS-linked yeast assay; note: nearly all actives have a fitted effect of over 55% in size;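 for growth rescue (activation): plate controls were DMSO vehicle for no effect and reference control for full effect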
Details: S. cerevisiae FUS-expressing, OD600, 24 h; Potency: growth rescue; growth rescue (activation): at 76.6 µM (top of the series)
Method in brief: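 Toxicity suppression screen in FUS-yeast. Cells induced with 2% galactose, starting OD 0.005, treated 24hr at 30C with compounds at multiple final concentrations; growth by OD600.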
Potency is the fitted concentration of half-maximal effect; tags give direction and shape of the fitted curve.

Q: Which Potency does the source give for `Cc1nc(-c2cccc(NS(=O)(=O)c3ccccc3)c2)cs1` here?
A: The Potency was inconclusive: 11.2 µM [activator, partial curve, poor fit].

Q: Which Potency does the source give for `COc1ccccc1NC(=O)c1c(C)cc(C)nc1SCC(=O)Nc1ccc(C)cc1` here?
A: Its Potency is inconclusive: 28.2 µM [activator, single point].

Q: For `CC(C)CNC(=O)OCc1cn(Cc2ccc(F)c(F)c2)nn1`, which “growth rescue (activation)” value is on record?
A: The value was inactive: -0.762%.

Q: For `Cc1ccc2[nH]c3c(NCc4ccccc4)ncnc3c2c1`, which Potency is on record?
A: The Potency was inconclusive: 35.5 µM [activator, single point].

Q: For `O=C(O)CSCc1nc2cccnc2n1C1CCCCC1`, which growth rescue (activation) is on record?
A: Its growth rescue (activation) is inconclusive: -81.9% [activator].

Q: Which “growth rescue (activation)” value does the source give for `O=C(Nc1ccc(C(=O)N2CCOCC2)cc1)c1cc(-c2cccnc2)nc2ccc(Br)cc12` here?
A: Its value is inactive: 40%.

Q: Which Potency does the source give for `CCc1ccc(NC(=O)N2CCN(Cc3nc4ccc(C)cc4o3)CC2)cc1` here?
A: The Potency was inconclusive: 31.6 µM [activator, single point].

Q: With `CO/N=C/c1ccc(Sc2ccccc2)c([N+](=O)[O-])c1` as the compound, how does the “growth rescue (activation)” value read?
A: Its value is inactive: -7.23%.

Q: With `CC(C)OCCCn1c(-c2ccc(Br)cc2)c[nH]c1=S` as the compound, how does the “growth rescue (activation)” value read?
A: The value was inactive: 27.7%.

Q: With `CC(=O)[C@H]1CC[C@H]2[C@@H]3CC=C4C[C@@H](O)CC[C@]4(C)[C@H]3CC[C@]12C` as the compound, how does the “growth rescue (activation)” value read?
A: Its value is inactive: -26.2%.

Q: With `C=CCOc1ccccc1CN(CCc1ccccc1)C(=O)c1cccc(S(C)(=O)=O)c1` as the compound, how does the Potency read?
A: The Potency was inconclusive: 50.1 µM [activator, single point].

Q: For `Cc1ccc(Sc2ncccc2[N+](=O)[O-])cc1`, which “growth rescue (activation)” value is on record?
A: Its value is inactive: 8.77%.

Q: With `CC1=Nc2cc(C(=O)NCc3ccc(C)cc3)ccc2Sc2ccc(Cl)cc21` as the compound, how does the Potency read?
A: The Potency was inconclusive: 25.1 µM [activator, single point].

Q: With `Cc1cc(C)cc(-n2c(C)cc(/C=N/NC(=O)c3cccc([N+](=O)[O-])c3C)c2C)c1` as the compound, how does the Potency read?
A: Its Potency is inconclusive: 11.2 µM [activator, partial curve, poor fit].

Q: For `O=C(OCC(=O)N1CCN(C(=O)c2ccco2)CC1)c1cccc(S(=O)(=O)N2CCc3ccccc32)c1`, which Potency is on record?
A: Its Potency is inconclusive: 50.1 µM [activator, single point].

Q: For `Cc1cc(C(F)F)n2nc(C(=O)Nc3ccc(S(=O)(=O)NC45CC6CC(CC(C6)C4)C5)cc3)nc2n1`, which Potency is on record?
A: The Potency was inconclusive: 39.8 µM [activator, single point].

Q: Which Potency does the source give for `CCOc1ccccc1NC(=O)Cn1c(=O)oc2cc(S(=O)(=O)NCc3ccccc3)ccc21` here?
A: Its Potency is inconclusive: 28.2 µM [activator, single point].

Q: With `Cc1cccc(-n2c(C)nc3cc(C(=O)NCCN4CCOCC4)ccc32)c1` as the compound, how does the “growth rescue (activation)” value read?
A: The value was inactive: -8.8%.

Q: Which Potency does the source give for `Cn1c(=O)[nH]c(=O)c2c1nc(Br)n2CCCCSc1nc2ccccc2o1` here?
A: The Potency was inconclusive: 7.94 µM [activator, partial curve, poor fit].

Q: For `CS(=O)(=O)N1CCc2cc(C(=O)Nc3ccc(Cl)c(C(F)(F)F)c3)ccc21`, which “growth rescue (activation)” value is on record?
A: Its value is inactive: 17.6%.

Q: With `O=C(CCNC(=O)C1CCN(S(=O)(=O)c2ccc(F)cc2)CC1)NCc1cccc(Cl)c1` as the compound, how does the “growth rescue (activation)” value read?
A: Its value is inactive: -13.2%.

Q: For `Cc1ccc(-n2nnnc2SCC(=O)N(CC(C)C)c2c(N)n(CC(C)C)c(=O)[nH]c2=O)cc1`, which Potency is on record?
A: The Potency was inconclusive: 50.1 µM [activator, single point].

Q: With `COc1cccc(N2CCN(C(=O)CCS(=O)(=O)c3ccc4c(c3)CC(=O)N4C)CC2)c1` as the compound, how does the Potency read?
A: Its Potency is inconclusive: 14.1 µM [activator, partial curve, poor fit].

Q: For `O=c1oc2ccccc2n1CCCOc1ccccc1Cl`, which “growth rescue (activation)” value is on record?
A: Its value is inactive: 16.3%.

Q: For `O=C(Cn1c(=O)n(CC(=O)NCc2ccccc2)c2ccccc21)NCc1ccccc1`, which Potency is on record?
A: Its Potency is inconclusive: 25.1 µM [activator, single point].

Q: Which “growth rescue (activation)” value does the source give for `O=C(Cn1c(=O)oc2cc(S(=O)(=O)N3CCCC3)ccc21)NCc1ccc(Cl)cc1` here?
A: Its value is inactive: 11.1%.

Q: Which Potency does the source give for `c1coc(-c2nnc3sc(Cc4cccs4)nn23)c1` here?
A: Its Potency is active: 10 µM.

Q: With `COc1ccc(CCNC(=O)c2ccc3c(c2)N=C(C)c2cc(C)ccc2S3)cc1OC` as the compound, how does the Potency read?
A: The Potency was inconclusive: 20 µM [activator, single point].

Q: Which Potency does the source give for `CC(C)C[C@H](NC(=O)c1nc[nH]c1C(=O)N(C)Cc1ccccc1)C(=O)OC(C)(C)C` here?
A: The Potency was inconclusive: 22.4 µM [activator, partial curve].

Q: With `O=C1c2ccccc2C(=O)N1CCCCc1cn(C[C@H]2CC[C@@H]([C@@H]3CC[C@H](Cn4cc(CCCCN5C(=O)c6ccccc6C5=O)nn4)O3)O2)nn1` as the compound, how does the “growth rescue (activation)” value read?
A: The value was inactive: 27.2%.

Q: Which “growth rescue (activation)” value does the source give for `COCC(=O)N/N=C/c1ccc(Sc2nc3ccccc3s2)o1` here?
A: Its value is inactive: -4.59%.

Q: Which “growth rescue (activation)” value does the source give for `CC1=CC2=NC(=O)/C(=C\c3cccn3CCOc3cccc(C)c3)C(=N)N2O1` here?
A: Its value is inactive: 30.3%.

Q: For `COC(=O)[C@]12C[C@H](CC(=O)NCCCN3CCCC3=O)C(=O)N(CCc3ccc(OC)c(OC)c3)C1=C[C@H](C(C)C)O[C@@H]2C1CC1`, which “growth rescue (activation)” value is on record?
A: Its value is inactive: 26.6%.

Q: For `COc1ccc(-n2c(SCC3OCCO3)nc3c(sc(=S)n3-c3ccccc3)c2=O)cc1OC`, which Potency is on record?
A: Its Potency is inconclusive: 25.1 µM [activator, single point].

Q: For `Cc1ccc(C2CC(=O)NC(SCC(=O)Nc3nccs3)=C2C#N)cc1` (configuration not stated), which Potency is on record?
A: The Potency was inconclusive: 50.1 µM [activator, single point].

Q: With `CCOc1ccc(-c2nnc(SCC(=O)NCc3ccc(C)cc3)nc2-c2ccc(OCC)c(OC)c2)cc1OC` as the compound, how does the Potency read?
A: Its Potency is inconclusive: 31.6 µM [activator, partial curve, poor fit].

Q: Which “growth rescue (activation)” value does the source give for `CCN(CC)c1ccc(N2C(=O)/C(=C/c3cccs3)SC2=S)cc1` here?
A: The value was inactive: 0.48%.

Q: With `CCCN(CCC)C(=O)C1CCN(c2cc(C)nc3c(-c4ccc(OC)c(OC)c4)c(C)nn23)CC1` as the compound, how does the “growth rescue (activation)” value read?
A: The value was inactive: 23.2%.

Q: Which “growth rescue (activation)” value does the source give for `Cc1ccc(C(=O)c2c3ccc(C(F)(F)F)cc3[n+]([O-])n2CCCN)cc1` here?
A: The value was inactive: 4.03%.

Q: Which Potency does the source give for `COc1ccc(/C=N/NC(=O)C(=O)/C=C2\NC3(CCCC3)Cc3ccccc32)cc1` here?
A: The Potency was inconclusive: 28.2 µM [activator, single point].

Q: For `COc1cccc(Cn2c(=O)n(-c3cccc(Cl)c3C)c(=O)c3c4c(sc32)CN(C(C)=O)CC4)c1`, which Potency is on record?
A: The Potency was inconclusive: 28.2 µM [activator, single point].

Q: With `CCOC(=O)C1=C[C@@H](C(C)(C)C)N(S(=O)(=O)c2ccc([N+](=O)[O-])cc2)[C@H]1c1ccccc1` as the compound, how does the Potency read?
A: Its Potency is inconclusive: 31.6 µM [activator, partial curve].

Source: PubChem BioAssay AID1347120 (National Center for Advancing Translational Sciences (NCATS), 2019)
